Data reported in PMC12136788.
The other results are listed elsewhere or left out.

B1: chr1:32196777:32196878:+|3pUTR|ENSG00000084652|msi1|total|mutant (ssRNA)
RNA: GGGAGUUCUACAGUCCGACGAUCUUUGAAGCCCGUUCAUUGUCCUGCAGGUCCCUUCAUCUUCCAUACCCCGCCCACUCUUUCCGCCCUUACCUUAAAUCUCUCAGAUAAGUUGGUUCACAAAGAAUGUUAAGUACUGAAUCACAACAGAGGAUUGAGCAUCA
B2: chr15:69268886:69268987:+|CDS|ENSG00000138604|unk|total|mutant (ssRNA)
RNA: GGGAGUUCUACAGUCCGACGAUCGGAGUUAAAGCUGUGUUUAUGAAUAAACAUGACUGGUAUGAAGAAUAUCCAACCACACCCCGCUCUUUUGUUUUAAAUGGCUUUAUGUAUUCUUUAAUUGGGCUGUAUGACUUAAAAGAACAACAGAGGAUUGAGCAUCA
B3: chr17:80395157:80395266:+|3pUTR|ENSG00000173821|unk|total|mutant (ssRNA)
RNA: GGGAGUUCUACAGUCCGACGAUCCUUCAAAGCCUUAACUGUCAAAUCUUGCAUUAUCUUGUUUGUACAGAAAUAUACUGGCCCCGCAGAGGCAAAAAAAAAAAAAAUGAAUUUUAUUUUACUUGUCACACCUGUCUUAAUAAACAACAGAGGAUUGAGCAUCA
B4: chr16:46702281:46707703:-|three_prime_utr|ENSG00000140795|control|control|control (ssRNA)
RNA: GGGAGUUCUACAGUCCGACGAUCUCACUACGUGUGAAAUGCUCUGAGUACCUUUCAAAUAUACCUACUUUUGGUGGUAAGUGUAGGGAUGCUUUAGGUAGGUACUUUGCAUCUGUCGAAUUUAAAUUCUAAACUCACACUGAUCAACAGAGGAUUGAGCAUCA
B5: chr3:152464585:152464701:+|3pUTR|ENSG00000152601|msi1|FALSE|unique (ssRNA)
RNA: GGGAGUUCUACAGUCCGACGAUCAUAUUUUUGAAAUCCCUGAGUAUCAGGCCUUGUUAUAAAUAAGCUGCAUAAUCAAUAAAUAGAACAAGGGACUUUUUGUUGAUAAUCCAAAUACUCAAAGUUUACGUAAUGAAAAUUAUACAACAGAGGAUUGAGCAUCA
B6: ENSG00000124766:be:win_3701|3pUTR|ENSG00000124766|bound_else_gene|NA|bound_elsewhere_windowed (ssRNA)
RNA: GGGAGUUCUACAGUCCGACGAUCUCAGGUUUAUAGCUGUUGUGUUUAAAAAUUGAAAAAAGUGGAAAACAUCUUUGUACAUUUAAGUCUGUAUUAUAAUAAGCAAAAAGAUUGUGUGUAUGUAUGUUUAAUAUAACAUGACAGCAACAGAGGAUUGAGCAUCA
B7: chr12:108645191:108645284:-|3pUTR|ENSG00000110880|msi1_unk|total|mutant (ssRNA)
RNA: GGGAGUUCUACAGUCCGACGAUCUCUUUUUUUUUUUUUUUUUUUAAGCCAUGACAUCCCAGAAGAGGACAGUGAAUUACUCCCCGGUCGGCUCUUACCGAGUGGCCACCGUGUUCUGUCAAAACACUUGCUUCCAUUUUCAGACAACAGAGGAUUGAGCAUCA
B8: chr3:51403142:51403395:-|CDS|ENSG00000145041|control|control|control (ssRNA)
RNA: GGGAGUUCUACAGUCCGACGAUCCGCAGGGGAAGAUGGGGACAAUGACUUCUCUCCCUCUGAUGAGGAGCUAGCAAACCUUCUAGAGGAGGGAGAGGACGGGGAGGAUGAAGACUCUGAUGCAGAUGAGGAGGUGGAACUGAUCAACAGAGGAUUGAGCAUCA
B9: chr18:70325936:70326038:+|CDS|ENSG00000170677|unk|FALSE|unique (ssRNA)
RNA: GGGAGUUCUACAGUCCGACGAUCAGCUUUCGCUCCCAUGGUAAAACACUUCACACUAGAAUUGAGCACUCAAAUGGUAGGUUUAGCUUUUAUGAACAGCCAGAUGUGGAAGGACAUACGUCCAUAGUUGAUCUAAUUGAGCAUCAACAGAGGAUUGAGCAUCA
B10: chr16:1999495:2000256:-|CDS|ENSG00000167962|control|control|control (ssRNA)
RNA: GGGAGUUCUACAGUCCGACGAUCUGGCACCGCCCCCACCAGCCUUGUCUCUGCCUGGAACAGCAGCAGUAGCAGCAAGAAGGUAGCACAGCCCCCACUCUCGGCGCAGGCUACCGGCAGCGGCCAGCCCACCAGGAAGGCUGGCAACAGAGGAUUGAGCAUCA
B11: chr3:66380370:66380471:-|CDS|ENSG00000144749|msi1|FALSE|unique (ssRNA)
RNA: GGGAGUUCUACAGUCCGACGAUCCGGUCAAGUGGGGGUCUGACAGGUUCGUUCUUUCCUUGUAGGGGAUUCUUCCUGGACUUUAGCAAGGUUGUAUCACCCGGACUCCACAGAGCUACAGCCUGCAUCUUCAUUAACUUCAGGCAACAGAGGAUUGAGCAUCA
B12: ENSG00000198589:be:win_8851|3pUTR|ENSG00000198589|bound_else_gene|NA|bound_elsewhere_windowed (ssRNA)
RNA: GGGAGUUCUACAGUCCGACGAUCUUAUUCCAGCUAUAAUAUUAUGAAGAACAUUUCCCAUGCAUCUACAAGCUUGAGAAAUAGGAUUUUCACAGUGGGGAAGUGGGUUACAAUAUUGGAAUAGGAAAAUUUGAUGCUGUAAUUCAACAGAGGAUUGAGCAUCA
B13: chr7:5620113:5620210:-|3pUTR|ENSG00000011275|msi1_unk|FALSE|overlapping (ssRNA)
RNA: GGGAGUUCUACAGUCCGACGAUCGUCACUUUGUAUAAAAACAAGAAACGAUUAGUUCAUUAAACUUUUUCUUUACCUUCUGGUAGUAAAAAUAGAUAAAAUAAUUCCGUUUCAACUACUGUGUGUAAAAAGCCUGUAUCAUAUCAACAGAGGAUUGAGCAUCA
B14: chr1:43978039:43978149:+|3pUTR|ENSG00000117410|unk|total|mutant (ssRNA)
RNA: GGGAGUUCUACAGUCCGACGAUCGGCCGUGCCUCACUUUUAUUUAUUGCUGGUUUUCCUGGGACAGCUGGAGCUGUGUCCCUCCGCCUUUCAGAGGCUUGGUGUUCAGGGCCCUCCCUGCACUCCCCUCUUGCUGCGUGUUGACAACAGAGGAUUGAGCAUCA
B15: chr16:2457226:2457327:+|3pUTR|ENSG00000162063|unk|FALSE|unique (ssRNA)
RNA: GGGAGUUCUACAGUCCGACGAUCCAAGCCAUCAGAAUGUUGAAAUGAGGGUGAAGAGCUCAGAUCCCUCUCUUUGGAAAGUUUAGCCUGGAAGCAGUUGGCCACACUGUGUGGAGGGCACCUCUCUGUCCCUUCCGUGUCUCACAACAGAGGAUUGAGCAUCA
B16: chr3:11557766:11557867:-|3pUTR|ENSG00000144560|msi1|total|mutant (ssRNA)
RNA: GGGAGUUCUACAGUCCGACGAUCCUGGACUGCAGACUCUACCAAUCACGGGCAUUUUAUCUUCUCUGAACACUGCAGUUUGUCCGACCCGAGCUGAGGUUGGAGGAUUCCACCGUGCUUUAAACGUGAUGCAUGUUUUAAUGGCAACAGAGGAUUGAGCAUCA
B17: chr7:92141642:92142809:-|three_prime_utr|ENSG00000240720|control|control|control (ssRNA)
RNA: GGGAGUUCUACAGUCCGACGAUCAACAGUUUCUUUUGGAUCUUUUUGCAGAGCUACUAUGGAAGAUGCACUCUUUCUGCGGGUAGGUUAUGAGUCUUUUAGUCUUGGUAUAUCAUGCACAGUGUGUAGUAGUCUGCCGAGAGCCAACAGAGGAUUGAGCAUCA
B18: chr12:57820040:57820141:-|3pUTR|ENSG00000175215|msi1|total|mutant (ssRNA)
RNA: GGGAGUUCUACAGUCCGACGAUCUUUUGCUUAUCAUGUUCCAUUUCGUGCCGCUUUCCCCCUUCAAGAUGCCAUUUGGAGGGCCGGGGAUCUGCUUCCCACUGUGACUGGGCUAUGGGAUUCUGACUACCUUGCUUACAGAUUCAACAGAGGAUUGAGCAUCA
B19: chr5:80437677:80437780:+|CDS|ENSG00000039319|unk|total|mutant (ssRNA)
RNA: GGGAGUUCUACAGUCCGACGAUCUUCCUUUCAGGAAGAUAAGACUGUUAUAAAACAAUCUGCACAAGAAGACUCAAAAAGUUCCGACCUUAAGGAUAAUGAUGUAAUCCAAGAUUCCUCUUCAGCUUUACAUGUUUCCAGUAACAACAGAGGAUUGAGCAUCA
B20: chrX:50386357:50386586:-|CDS|ENSG00000274588|control|control|control (ssRNA)
RNA: GGGAGUUCUACAGUCCGACGAUCAGAAUAUGCAGACAGCAGCAAGGCAGAUAGGAAGCCCUUCAUUCCUCAAAUAGACCACAUAGCCAAGUGCAAGUUGGAGCUGGCUACAAAGGCCCAGAGUCUCCAGAAAUCCUUGAAACUCAACAGAGGAUUGAGCAUCA
B21: chr11:8104520:8104621:+|3pUTR|ENSG00000166402|msi1|FALSE|unique (ssRNA)
RNA: GGGAGUUCUACAGUCCGACGAUCGGCAAUCAGCAAUCAACUGAGGUUUCUUAAUUGUGAUUAUAUUCCUGAGAAUGAAUGAGUAGGAAAGGAAUAAGGAUGUUGUUAUGAUCGCCUGUGGAUUUUGUCCAUUCAUCUCAUGCUCAACAGAGGAUUGAGCAUCA
B22: chr2:96185838:96185916:-|3pUTR|ENSG00000084090|msi1_unk|total|mutant (ssRNA)
RNA: GGGAGUUCUACAGUCCGACGAUCUGGGAGACUAAUCCUUUCCGACCGCCGCUUUUUGAUGCUCAAAACAUCACAUUUAAAUUCCGUUUAAAAAUUUUUUAACUUUUGUGUCAAACCGGAGUUGAGGAAUUGAGCAGGAUUCUACAACAGAGGAUUGAGCAUCA

The binders below were run against MSI1 full-length (mouse, UniProt Q61474 1-362) (assay: nsRBNS (natural sequence RNA bind-n-seq); RBNS binding buffer (assumed for nsRBNS): 25 mM Tris pH 7.5, 150 mM KCl, 3 mM MgCl2, 0.01% Triton X-100, 500 ug/ml BSA, 20 U/ml SUPERase-In, 4 C; UNK is unkempt and MSI1 is Musashi-1; names of the RNAs are library labels; protein concentration not given here; high values mean tight binding).
Sequence of UniProt Q61474 (Q61474 whole entry): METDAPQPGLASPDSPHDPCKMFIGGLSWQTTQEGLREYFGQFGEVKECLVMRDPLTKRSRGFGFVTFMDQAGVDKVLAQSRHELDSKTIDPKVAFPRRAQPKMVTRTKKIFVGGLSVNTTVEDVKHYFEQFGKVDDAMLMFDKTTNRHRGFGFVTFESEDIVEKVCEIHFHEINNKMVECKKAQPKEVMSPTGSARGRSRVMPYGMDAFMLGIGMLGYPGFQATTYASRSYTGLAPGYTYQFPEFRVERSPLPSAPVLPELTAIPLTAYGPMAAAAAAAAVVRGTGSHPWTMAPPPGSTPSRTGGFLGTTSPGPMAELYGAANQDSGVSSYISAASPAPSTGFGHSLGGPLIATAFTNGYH

Binder	binding signal [enrichment R]
B1	0.851
B2	0.447
B3	0.503
B4	0.327
B5	0.698
B6	1.6
B7	2.3
B8	0.631
B9	2.06
B10	0.33
B11	0.608
B12	0.517
B13	1.15
B14	0.56
B15	0.351
B16	0.363
B17	1.27
B18	0.57
B19	0.25
B20	1.63
B21	0.299
B22	0.255
